# Source: paper PMC6664820, “Novel natural and synthetic inhibitors of solute carriers SGLT1 and SGLT2” (Pharmacology Research & Perspectives, 2019)
# About 40 (2%) of roughly 1,900 compounds showed an effect of 50% or more. Some of the results follow.
# Molecular target: human SGLT1 (hSGLT1) (human, UniProt P13866)
# Assay: primary screen, percent of control activity; higher = less effect of the substance
# Set-up: single well
# Conditions: 50 µM
# How it was run: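 Single-point screen at 50 µmol/L in CHO-hSGLT1 cells, with 160 µmol/L 1-NBD-glucose in glucose-free DMEM for 90 min at 37°C. Fluorescence from isopropanol extracts was calibrated, and CHO wild-type uptake was subtracted. Data are percent of uptake without compound.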
# human SGLT1 (hSGLT1), sequence (P13866 whole entry, looked up): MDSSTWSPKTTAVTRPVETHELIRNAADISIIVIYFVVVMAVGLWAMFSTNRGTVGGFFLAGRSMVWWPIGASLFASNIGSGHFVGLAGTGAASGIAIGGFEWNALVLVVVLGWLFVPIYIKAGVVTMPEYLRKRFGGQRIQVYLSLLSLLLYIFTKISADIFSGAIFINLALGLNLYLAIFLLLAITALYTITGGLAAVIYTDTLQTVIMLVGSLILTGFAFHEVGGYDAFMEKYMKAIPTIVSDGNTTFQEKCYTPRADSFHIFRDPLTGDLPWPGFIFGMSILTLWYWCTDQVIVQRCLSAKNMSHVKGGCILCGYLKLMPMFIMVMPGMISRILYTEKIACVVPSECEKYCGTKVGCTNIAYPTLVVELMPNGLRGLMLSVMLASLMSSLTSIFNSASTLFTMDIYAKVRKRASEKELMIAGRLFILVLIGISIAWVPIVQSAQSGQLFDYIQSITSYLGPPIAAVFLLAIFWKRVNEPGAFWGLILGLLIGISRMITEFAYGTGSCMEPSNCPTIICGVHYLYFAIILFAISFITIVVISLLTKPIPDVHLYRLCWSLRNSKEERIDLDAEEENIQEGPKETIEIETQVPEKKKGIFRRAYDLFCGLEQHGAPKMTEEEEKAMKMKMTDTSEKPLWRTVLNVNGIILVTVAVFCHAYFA
row,SMILES,NORMALIZED SGLT1 ACTIVITY (%)
1,O=C1c2ccc(O)c(O)c2C(=O)c2c(O)ccc(O)c21,127%
2,COc1ccc2c(c1)O[C@H]1c3ccc(OC)cc3OC[C@@H]21,149%
3,COC1C(O)C(O)C(O)[C@@H](O)C1O (stereo partly shown),84%
4,C[C@@H]1CC[C@H]2[C@@H](C)C(O)O[C@@H]3O[C@@]4(C)CC[C@@H]1[C@]32OO4 (stereo partly shown),120%
5,CC1(C)O[C@@H]2CC3C4C[C@H](F)C5=CC(=O)CC[C@]5(C)C4[C@@H](O)C[C@]3(C)[C@]2(C(=O)CO)O1 (stereo partly shown),155%
6,O=C(O)C1=C[C@@H](O)[C@@H](O)[C@H](O)C1,90%
7,C=C(C)[C@@H]1[C@H]2OC(=O)[C@@H]1[C@]1(O)C[C@H]3O[C@]34C(=O)O[C@H]2[C@]14C,80%
8,COC(=O)CCCOc1ccc(Cl)cc1Cl,212%
9,CC(=O)[C@@]1(O)CC[C@H]2[C@@H]3C[C@H](C)C4=CC(=O)C=C[C@]4(C)[C@@]3(F)[C@@H](O)C[C@@]21C,113%
10,O=C(O)C(O)C(O)C(=O)O.OCc1cccnc1 (stereo not shown),98%
11,COC(=O)Nc1nc2ccc(Sc3ccccc3)cc2[nH]1,97%
12,COc1ccc2c(=O)c(OC)c(-c3ccccc3)oc2c1,88%
13,C=C[C@H]1CN2CC[C@H]1C[C@H]2[C@H](O)c1ccnc2ccccc12,77%
14,CC(=O)O[C@]1(C(C)=O)CCC2C3C=C(C)C4=CC(=O)CCC4(C)C3CCC21C (stereo partly shown),101%
15,COc1cc2nc(N(C)CCCNC(=O)C3CCCO3)nc(N)c2cc1OC.Cl (stereo not shown),162%
16,C#C[C@]1(O)CCC2C3CCC4=CC(=O)CC[C@@H]4C3CCC21CC (stereo partly shown),100%
17,CC1(C)S[C@@H]2[C@H](NC(=O)COc3ccccc3)C(=O)N2[C@H]1C(=O)[O-].[K+],96%
18,COc1ccc(-c2cc(=O)c3ccccc3o2)cc1OC,202%
19,C[C@H]1[C@H](C)CC[C@]2(CO)CC[C@]3(C)C(=CC[C@@H]4[C@@]5(C)CC[C@H](O)C(C)(C)[C@@H]5CC[C@]43C)[C@H]12,85%
20,COc1ccc2c3c([nH]c2c1)C(C)=NCC3,155%
21,COc1ccc(C(=O)/C=C/c2ccccc2)cc1,127%
22,O=C(O)CCCCCCCC(=O)O,98%
23,COc1cc2c(cc1OC)C1(O)C(=O)c3ccc(O)c(C(=O)O)c3OC1CO2 (stereo not shown),111%
24,CC1=CCCC2C1(C)CCC(C)C2(C)CC/C(C)=C/Cn1c[n+](C)c2c(N)ncnc21.[Cl-] (stereo not shown),58%
25,CC1(C)C2CC(=O)O[C@@]3(C)C4=CC(=O)O[C@@H](c5ccoc5)[C@]4(C)CCC3[C@@]2(C)C=C[C@H]1O (stereo partly shown),132%
